These results are taken from PMC6996395 (FASEB bioAdvances, 2019).

Experiment [1] concerns the target Split-CFTR back half (TMD2-NBD2-C-Term; aa 837-1480) (UniProt P13569 837-1480). Kind of experiment: proximity ligation.
Experiment [2] has as its target Split-CFTR front half (N-term-TMD1-NBD1; aa 1-634) (UniProt P13569 1-634). Kind of experiment: proximity ligation.

B1: CFTR R-region, wild type ([…]) (domain or fragment)
chain: not shown
Regarding B1, the “CTCF of PLA signal (basal)” value in experiment [1] amounted to 3.41.

B2: CFTR R-region R-S641A/T682A ([…]) (domain or fragment)
chain: not shown
For B2, in experiment [2], the “CTCF of PLA signal (after PKA stimulation)” value was 4.24, the “CTCF of PLA signal (after PKC + PKA stimulation)” value was 13, the “CTCF of PLA signal (after PKC stimulation)” value was found to be 9.26 and the “CTCF of PLA signal (basal)” value was 1.45. Also, the “CTCF of PLA signal (basal)” value in experiment [1] was found to be 11.8.

B3: CFTR R-region R-S686D ([…]) (domain or fragment)
chain: not shown
In the case of B3, in experiment [2], the “CTCF of PLA signal (after PKA stimulation)” value is 6.75 and the “CTCF of PLA signal (after PKC stimulation)” value amounted to 4.54.

B4: CFTR R-region R-S686A ([…]) (domain or fragment)
chain: not shown
Take B4: in experiment [2], the “CTCF of PLA signal (after PKA stimulation)” value came out at 6.15, the “CTCF of PLA signal (after PKC + PKA stimulation)” value turned out to be 3.49 and the “CTCF of PLA signal (basal)” value turned out to be 4.86. Also, the “CTCF of PLA signal (basal)” value in experiment [1] worked out at 1.56.
